Source: paper PMC6919601, “Identification of Plasmodium dipeptidyl aminopeptidase allosteric inhibitors by high throughput screening” (PLoS ONE, 2019)
“And” between values parts separate entries of the source, which are not always exact repeats. Identical values can stand only once. The campaign covered roughly 110,000 compounds. About 230 (0.21%) showed an effect of 50% or more. The list shows a part of the results.

Target: DPAP1 (Plasmodium falciparum, UniProt Q8IIJ9)
Experiment: primary screen, percent inhibition; read by cleavage of a fluorogenic dipeptide substrate; higher = more effect of the substance
Parameters: species or system P. falciparum D10 trophozoite lysates; single well
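Also: 30 min substrate incubation versus DMSO and 10 µM JCP410 controls.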

DPAP1, sequence (Q8IIJ9 whole entry, looked up): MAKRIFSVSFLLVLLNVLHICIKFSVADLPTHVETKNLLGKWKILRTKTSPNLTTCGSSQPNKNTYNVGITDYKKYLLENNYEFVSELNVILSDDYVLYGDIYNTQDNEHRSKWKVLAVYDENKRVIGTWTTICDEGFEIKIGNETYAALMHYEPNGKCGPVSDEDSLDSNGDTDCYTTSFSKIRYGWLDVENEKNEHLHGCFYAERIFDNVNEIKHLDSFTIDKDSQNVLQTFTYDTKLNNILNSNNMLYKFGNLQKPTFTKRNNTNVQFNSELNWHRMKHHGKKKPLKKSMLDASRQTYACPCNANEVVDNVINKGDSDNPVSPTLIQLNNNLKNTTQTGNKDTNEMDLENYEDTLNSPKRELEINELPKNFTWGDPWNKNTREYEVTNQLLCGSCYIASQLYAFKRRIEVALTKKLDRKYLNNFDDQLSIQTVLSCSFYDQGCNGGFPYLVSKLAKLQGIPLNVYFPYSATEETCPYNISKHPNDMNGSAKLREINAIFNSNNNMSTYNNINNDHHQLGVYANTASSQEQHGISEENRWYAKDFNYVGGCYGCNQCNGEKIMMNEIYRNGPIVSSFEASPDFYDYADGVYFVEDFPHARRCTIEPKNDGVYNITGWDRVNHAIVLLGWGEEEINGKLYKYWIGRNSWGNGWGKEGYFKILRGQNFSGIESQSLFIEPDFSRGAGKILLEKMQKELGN

Structure (SMILES) | % Inhibition @ 10 uM
COc1ccc(C2Nc3cccc4cccc(c34)N2)c(OC)c1OC | 5.11%
CC1CCC2C(=O)N(c3cccc(C(=O)O)c3)C(=O)C2C1 (centres unmarked) | 8.92%
Cc1nnc(N2CCCC(C(=O)NCc3ccccc3)C2)c2nn(-c3ccc(Cl)cc3)c(C)c12 (centres unmarked) | 1.91%
O=C(Nc1ccc(C(F)(F)F)cc1)c1cccc(OC(F)F)c1 | 2.82%
O=C(NC1CCCCCC1)C1CCN(C(=O)c2ccc(Br)cc2)CC1 | -2.67%
COc1ccc(/N=C(\C)C2=C(O)CSCC2=O)cc1 | 1.03%
CC(C)CCNC(=O)C1CCN(c2nc3ccc(Br)cc3s2)CC1 | 0.0882%
CC1Cn2c(C(=O)NCCCc3ccccc3)cc3cccc(c32)S1 (centres unmarked) | 2.32%
CCNC(=O)C1Cc2ccccc2CN1S(=O)(=O)c1cccs1 (centres unmarked) | -0.478%
COc1cccc(/C=C2\Sc3ccccc3C2=O)c1O | 2.01%
CC(C)(C)c1cn2c3ccccc3nc2n1CCCO | 0.177%
S=C(c1nc2ccccc2[nH]1)N1CCOCC1 | 1.26%
CC(C)(C)Nc1nc(Cl)nc(NC2CCCC2)n1 | 2%
O=C1CCC(c2ccc(Cl)cc2)=NN1 | -0.256%
O=C1/C(=C/c2cccc(O)c2)Sc2ccccc21 | 1.8%
CCCCNC(=O)Cn1ccc2cc(S(=O)(=O)N3CCCC3)ccc21 | 0.536%
Cc1ccccc1-c1nc(CS(=O)(=O)CC(=O)NCc2ccccc2Cl)c(C)o1 | -1.89%
OCCN1CCN(c2ncnc3scc(-c4ccccc4)c23)CC1 | -5.98%
O=C(OCC1CC(c2ccccc2)=NO1)c1ccc(Cl)cc1 (centres unmarked) | 1.91%
O=C(Nc1ccc2c(c1)-c1ccccc1C2=O)c1ccccc1 | 0.843%
COCCNC(=O)c1ccc2c(c1)c(C)c(C)n2C | 0.747%
CC(C)CCC(=O)NCC#N.COC(=O)c1ccc(-c2ccc(C=O)cc2)c(Cl)c1 | -3.48%
COCCNC(=O)c1ccc(CS(=O)c2ccccc2Cl)o1 (centres unmarked) | -0.434%
O=C(Nc1ccc2oc(-c3ccc(-c4ccccc4)cc3)nc2c1)c1ccncc1 | 4.58%
CCC1(C)CC(=O)c2c(ccc3oc(C(=O)N4CCc5ccccc5C4)c(C)c23)O1 (centres unmarked) | 2.84%
O=C(c1cccnc1)N1N=C(C(F)(F)F)CC1(O)c1ccncc1 (centres unmarked) | 4.11%

Structure (SMILES) | % Inhibition @ 10 uM
CC(C)CCNC(=O)CN(C)S(=O)(=O)c1cccc2nsnc12 | 0.317%
CC(C)OCCCNS(=O)(=O)c1ccc2[nH]c3c(c2c1)CCCC3 | 3.21%
CC(NS(=O)(=O)c1ccc(OCC(=O)Nc2ccc(F)cc2F)cc1)c1ccccc1 (centres unmarked) | 2.13%
CC(CC(=O)O)c1ccc2c(c1)n(C)c(=O)n2C (centres unmarked) | 2.22%
CC(NC(=O)c1c(O)nc2ccccc2c1O)c1ccccc1 (centres unmarked) | 0.219%
O=C(O)CCCC(=O)Nc1cccc(Cl)c1Cl | -2.55%
COC(=O)c1ccc(Cl)c(-c2ccc(C(=O)N[C@@H](C[C@H](C)c3ccccc3)C(=O)NC3(C#N)CCSCC3)cc2)c1 | 16.9%
Cc1ccc(Cl)cc1-n1ncc2c(NCCCO)ncnc21 | -3.2%
CCCOC(=O)Nc1nnc(Cc2ccccc2)s1 | 0.927%
O=C(c1cccs1)n1cnc2ccccc21 | 0.486%
CCOC(=O)C1=C(CN2CC=C(c3ccccc3)CC2)NC(=O)NC1c1cccc(OC)c1OC (centres unmarked) | -1.3%
CCOc1ccc(-c2cc(CCCC(=O)NCc3cccnc3)no2)cc1 | -11.1%
O=C1N(c2ccc(Br)cc2)C2CS(=O)(=O)CC2N1c1cccc(Cl)c1 (centres unmarked) | 8.09%
COc1ccc(N2CCN(Cc3cc([N+](=O)[O-])ccc3Cl)CC2)cc1 | -5.57%
CC(C)C[C@H](NC(=O)OCc1cccc2ccccc12)C(=O)NCC#N | -3.04%
CCc1cccc(C)c1NC(=O)c1cccc(NC(=O)C(C)C)c1 | -8.53%
Cc1cccc(OCCCn2c(CO)nc3ccccc32)c1 | -2.28%
Cc1cc(C)c2c(-n3cccc3)c(C(=O)N3CCC(C(N)=O)CC3)sc2n1 | 0.623%
COc1ccc(CC(=O)c2ccc(OC)c(OC)c2)cc1 | 4.84%
O=C(Nc1ccc(S(=O)(=O)NCCc2ccccc2)cc1)c1cccs1 | -7.09%
COC(=O)C1=CN(Cc2ccc(OC)c(OC)c2)C=C(C(=O)OC)C1c1ccccc1OC(C)C | -5.05%
CCC(C)c1ccc(NC(=O)c2ccccc2[N+](=O)[O-])cc1 (centres unmarked) | 4.33%
CCOC(=O)C1=C(CN2CCN(c3ccc(Cl)nn3)CC2)NC(=O)NC1c1ccc(OC)cc1 (centres unmarked) | 0.6%
CC(C)C[C@H](NC(=O)OCc1ccccc1)C(=O)N[C@@H](Cc1c[nH]c2ccccc12)C(=O)C[N+](=O)[O-] | -11%
COc1ccc(C2CC(=O)N=C(NC(=O)c3cccc(OC)c3)N2)cc1 (centres unmarked) | -7.01%
COC(=O)c1ccc(-c2ccco2)n1CC(=O)NCCCN1CCOCC1 | -10.7%

Structure (SMILES) | % Inhibition @ 10 uM
C=CCOC(=O)c1c2c(n3ccc(C)cc13)C(=O)c1ccccc1C2=O | -6.78%
COc1ccc2c(c1)N(S(=O)(=O)c1ccc(C)cc1)CCCC2=O | 4.32%
Cc1ccc(Cc2cnc(CN(C)C)c(O)c2)cc1 | -0.999% and 6.08%
C=CCOc1ccccc1/C=c1\sc2nc(=O)c(C)nn2c1=O | -3.56%
COc1cccc(CNc2c(C)c(C)nc3nncn23)c1 | -2.57%
CCCC(=O)Nc1ccc(Oc2ccc(Cl)cc2)cc1 | 3.04%
O=c1oc2ccc(NS(=O)(=O)c3cc(Cl)ccc3Cl)cc2s1 | -2.94%
Nc1nc2n(n1)C1(CCCCC1)C1=C(CCCC1)N2 | 9.51%
O=C(Nc1cccc(Cl)c1)N1CCC/C1=N\c1ccc(Cl)cc1 | 4.61%
CCOC(=O)c1ccc(-c2ccc(/C=C3/C(=O)ON=C3C)o2)cc1 | 3.86%
OC1(c2cccs2)C[N+](c2ccccc2)=C2CCCCN21 (centres unmarked) | 3.99%
CC1CCCC(N2CCCC(O)C2)C1 (centres unmarked) | 3.19%
Cn1ncc2c(N(CCO)CCO)ncnc21 | 3.99%
CCC(C(=O)Nc1c2c(nn1-c1cccc(Cl)c1)CS(=O)(=O)C2)c1ccccc1 (centres unmarked) | 7.53%
Cc1nn(C(C)C(=O)NC2CCCCCC2)c(=O)c2nn(-c3ccccc3)c(C)c12 (centres unmarked) | -3.62%
CCC(NC(=O)CSc1nc2ccccc2o1)C12CC3CC(CC(C3)C1)C2 (centres unmarked) | 0.883%
Cc1ccc(S(=O)(=O)N(C)CCCC(=O)N2CCCCC2)cc1 | -0.999%
Cc1ccccc1C(=O)n1nc(-c2cccnc2)nc1NCc1cccs1 | -6.64%
Cc1ccc(S(=O)(=O)N(C)CC(=O)NCc2nc(-c3ccccc3)no2)cc1 | 0.486%
CC(C)CNC(=O)c1ccc2c3c(onc13)-c1ccccc1C2=O | 1.57%
COc1cccc(-c2ccc(C#N)c(SCC(=O)NCc3ccc4c(c3)OCO4)n2)c1 | -0.68%
O=C1/C(=C/c2ccsc2)Cc2ccccc21 | 1.83%
Cc1nc(-c2cnn(-c3ccccc3)c2)c2cc(C)oc2n1 | 1.24%
O=C(CC(c1cccs1)N1Cc2ccccc2C1=O)N1CCCCC1 (centres unmarked) | 3.31%
CCCN1CCC(NCc2cccc(Cl)c2)CC1 | 1.83%
CCC(NC(=O)[C@H](CC1CCCCC1)/N=C(\C)NS(=O)(=O)c1ccccc1)C(=O)c1nc2ccccc2o1 (some centres unmarked) | -3.14%

Structure (SMILES) | % Inhibition @ 10 uM
C=CCn1c(S)nnc1CCC(O)COCCC(C)C (centres unmarked) | -5.26%
CCS(=O)(=O)c1nc(S(=O)(=O)c2ccc(Cl)cc2)c(NC)s1 | -2.25%
Cc1ccc(-c2c(NCc3ccc(Cl)cc3)c(=O)c2=O)cc1C | -2.57%
Clc1cccc(OCCCCCCN2CCCC2)c1 | -7.8%
Cc1ccc(C2=NS(=O)(=O)N(C)C(C(=O)N3CCN(C(=O)c4cccc(F)c4)CC3)=C2)cc1 | 6.98%
Cc1nc2sccc2c(=O)n1-c1cccc(Cl)c1 | 2.25%
O=C(c1cccc(Cl)c1)N(Cc1ccccc1)c1ccccn1 | 1.67%
CCc1ccc(Oc2nc3c(C)cccn3c(=O)c2/C=C(\C#N)C(=O)NCCCOC)cc1 | 5.21%
Oc1nc2c(s1)C(c1cccnc1)C1C3CCC(C3)C1S2 (centres unmarked) | -5.36%
O=C(Cn1cnc2ccc(Cl)cc2c1=O)Nc1ccc2ccccc2c1 | -2.83%
OCCNc1nc(N2CCOCC2)ncc1F | 3.15%
Cc1ccccc1/C=C/C(=O)NCC(=O)N1CCC(N(C)C2CCCCC2C)CC1 (centres unmarked) | -2.85%
O=C(Cc1c(C(=O)O)[nH]c2ccccc12)NC1CCCC1 | 2.17%
O=C1c2ccc(F)cc2C(=O)N1C1CCCCCCC1 | -1.35%
Cc1cc(=O)oc2c(CN3CCN(CCO)CC3)c(O)ccc12 | 1.25%
CCCCc1cc(=O)oc2cc(OC(C)C(=O)O)ccc12 (centres unmarked) | -9.24%
Cc1ccc(-n2c(SCC(=O)NCCc3ccccc3)nc3nnc(C)c-3c2N)cc1Cl | 4.35%
Cc1c(C(=O)N(Cc2ccccc2F)C2CCS(=O)(=O)C2)oc2cc(Br)ccc12 (centres unmarked) | 2.02%
C#CC(C)(C)N1CCC(OC(C)=O)CC1 | -0.969%
NC(=O)c1c(NC(=O)CCC2CCCC2)sc2c1CCCC2 | -0.48%
COc1ccc(CN2CCC(N3CCCCC3)CC2)c(OC)c1C | -10.2%
Cc1cc(C)n2nc(SCc3cc(=O)n4c(C)cccc4n3)nc2n1 | -2.14%
COc1ccc(CNCc2c(C(=O)O)n(Cc3ccccc3Cl)c3ccccc23)cc1 | 5.09%
